# This is one part of the list.
# B1: Cohesin-marm-DC-ASGPR-CRD (protein)
# chain: LDITSHHHHHHDDLDAVRIKVDTVNAKPGDTVRIPVRFSGIPSKGIANCDFVYSYDPNVLEIIEIEPGDIIVDPNPDKSFDTAVYPDRKIIVFLFAEDSGTGAYAITKDGVFATIVAKVKEGAPNGLSVIKFVEVGGFANNDLVEQKTQFFDGGVNVGDTTEPATPTTPVTTPTTTDDLDAASCPINWVEHQGSCYWFSRSGKTWPEAERYCQLENTHLVVINSREEQNFVQAHLGSAYTWMGLSDPEGVWKWVDGTDYSSGFQNWKPGQPDDWQGHGLGGGEDCAHFHPDGRWNDDVCQRSYHWVCEAGLTQASQDSH
# Key:
# Assay in all cases: glycan array binding signal (z-score within array); higher = stronger binding
# Settings in all cases: glycan notation: IUPAC condensed, linker removed
# [1] = target: Gal(b1-3)GlcNAc(b1-6)[Gal(b1-3)]GalNAc
# In short: (§1)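 Columns mapping to the same glycan were averaged after glycan names were converted to IUPAC-condensed notation. The data come from 3228 arrays in the Consortium for Functional Glycomics database, limited to those with an available protein sequence. Binding is reported as a within-array Z-score averaged across arrays of one protein sequence and across linkers.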
# [2] = target: Gal(b1-3)GlcNAc6S
# In short: as §1
# [3] = target: Gal(b1-3)[Fuc(a1-4)]GlcNAc
# In short: as §1
# [4] = target: Gal(b1-3)[Fuc(a1-4)]GlcNAc(b1-2)Man
# In short: as §1
# [5] = target: Gal(b1-3)[Fuc(a1-4)]GlcNAc(b1-2)Man(a1-3)[Gal(b1-3)[Fuc(a1-4)]GlcNAc(b1-2)Man(a1-6)]Man(b1-4)GlcNAc(b1-4)[Fuc(a1-6)]GlcNAc
# In short: as §1
# [6] = target: Gal(b1-3)[Fuc(a1-4)]GlcNAc(b1-3)Gal(b1-3)[Fuc(a1-4)]GlcNAc
# In short: as §1
# [7] = target: Gal(b1-3)[Fuc(a1-4)]GlcNAc(b1-3)Gal(b1-4)[Fuc(a1-3)]GlcNAc
# In short: as §1
# [8] = target: Gal(b1-3)[Fuc(a1-4)]GlcNAc(b1-6)GalNAc
# In short: as §1
# [9] = target: Gal(b1-3)[GlcNAc(b1-6)]GalNAc
# In short: as §1
# [10] = target: Gal(b1-3)[Neu5Ac(a2-6)]GalNAc
# In short: as §1
# [11] = target: Gal(b1-3)[Neu5Ac(a2-6)]GlcNAc(b1-4)Gal(b1-4)Glc
# In short: as §1
# [12] = target: Gal(b1-3)[Neu5Ac(b2-6)]GalNAc
# In short: as §1
# [13] = target: Gal(b1-4)Gal
# In short: as §1
# [14] = target: Gal(b1-4)GalNAc(a1-3)[Fuc(a1-2)]Gal(b1-4)GlcNAc
# In short: as §1
# [15] = target: Gal(b1-4)GalNAc(b1-3)[Fuc(a1-2)]Gal(b1-4)GlcNAc
# In short: as §1
# [16] = target: Gal(b1-4)Glc
# In short: as §1
# [17] = target: Gal(b1-4)Glc6S
# In short: as §1
# [18] = target: Gal(b1-4)GlcNAc
# In short: as §1
# [19] = target: Gal(b1-4)GlcNAc(a1-6)Gal(b1-4)GlcNAc
# In short: as §1
# [20] = target: Gal(b1-4)GlcNAc(b1-2)Man
# In short: as §1
# [21] = target: Gal(b1-4)GlcNAc(b1-2)Man(a1-3)Man(b1-4)GlcNAc(b1-4)GlcNAc
# In short: as §1
# [22] = target: Gal(b1-4)GlcNAc(b1-2)Man(a1-3)[Gal(b1-4)GlcNAc(b1-2)Man(a1-6)]Man(b1-4)GlcNAc(b1-4)GlcNAc
# In short: as §1
# [23] = target: Gal(b1-4)GlcNAc(b1-2)Man(a1-3)[Gal(b1-4)GlcNAc(b1-2)Man(a1-6)]Man(b1-4)GlcNAc(b1-4)[Fuc(a1-6)]GlcNAc
# In short: as §1
# [24] = target: Gal(b1-4)GlcNAc(b1-2)Man(a1-3)[Gal(b1-4)GlcNAc(b1-2)Man(a1-6)][Gal(b1-4)GlcNAc(b1-4)]Man(b1-4)GlcNAc(b1-4)[Fuc(a1-6)]GlcNAc
# In short: as §1
# [25] = target: Gal(b1-4)GlcNAc(b1-2)Man(a1-3)[Gal(b1-4)GlcNAc(b1-2)Man(a1-6)][GlcNAc(b1-4)]Man(b1-4)GlcNAc(b1-4)[Fuc(a1-6)]GlcNAc
# In short: as §1
# [26] = target: Gal(b1-4)GlcNAc(b1-2)Man(a1-3)[GlcNAc(b1-2)Man(a1-6)]Man(b1-4)GlcNAc(b1-4)GlcNAc
# In short: as §1
# [27] = target: Gal(b1-4)GlcNAc(b1-2)Man(a1-3)[GlcNAc(b1-4)][Gal(b1-4)GlcNAc(b1-2)Man(a1-6)]Man(b1-4)GlcNAc(b1-4)GlcNAc
# In short: as §1
# [28] = target: Gal(b1-4)GlcNAc(b1-2)Man(a1-3)[Man(a1-6)]Man(b1-4)GlcNAc(b1-4)GlcNAc
# In short: as §1
# [29] = target: Gal(b1-4)GlcNAc(b1-2)Man(a1-6)Man(b1-4)GlcNAc(b1-4)GlcNAc
# In short: as §1
# [30] = target: Gal(b1-4)GlcNAc(b1-2)Man(a1-6)[GlcNAc(b1-2)Man(a1-3)]Man(b1-4)GlcNAc(b1-4)GlcNAc
# In short: as §1
# [31] = target: Gal(b1-4)GlcNAc(b1-2)Man(a1-6)[Man(a1-3)]Man(b1-4)GlcNAc(b1-4)GlcNAc
# In short: as §1
# [32] = target: Gal(b1-4)GlcNAc(b1-2)[Gal(b1-4)GlcNAc(b1-4)]Man(a1-3)[Gal(b1-4)GlcNAc(b1-2)Man(a1-6)]Man(b1-4)GlcNAc(b1-4)GlcNAc
# In short: as §1
# [33] = target: Gal(b1-4)GlcNAc(b1-2)[Gal(b1-4)GlcNAc(b1-4)]Man(a1-3)[Gal(b1-4)GlcNAc(b1-2)[Gal(b1-4)GlcNAc(b1-6)]Man(a1-6)]Man(b1-4)GlcNAc(b1-4)GlcNAc
# In short: as §1
# [34] = target: Gal(b1-4)GlcNAc(b1-2)[Gal(b1-4)GlcNAc(b1-4)]Man(a1-3)[GlcNAc(b1-4)][Gal(b1-4)GlcNAc(b1-2)Man(a1-6)]Man(b1-4)GlcNAc(b1-4)GlcNAc
# In short: as §1
# [35] = target: Gal(b1-4)GlcNAc(b1-2)[Gal(b1-4)GlcNAc(b1-4)]Man(a1-3)[GlcNAc(b1-4)][Gal(b1-4)GlcNAc(b1-2)[Gal(b1-4)GlcNAc(b1-6)]Man(a1-6)]Man(b1-4)GlcNAc(b1-4)GlcNAc
# In short: as §1
# [36] = target: Gal(b1-4)GlcNAc(b1-2)[Gal(b1-4)GlcNAc(b1-6)]Man(a1-6)[Gal(b1-4)GlcNAc(b1-2)Man(a1-3)]Man(b1-4)GlcNAc(b1-4)GlcNAc
# In short: as §1
# [37] = target: Gal(b1-4)GlcNAc(b1-2)[Gal(b1-4)GlcNAc(b1-6)]Man(a1-6)[Gal(b1-4)GlcNAc(b1-2)Man(a1-3)]Man(b1-4)GlcNAc(b1-4)[Fuc(a1-6)]GlcNAc
# In short: as §1
# [38] = target: Gal(b1-4)GlcNAc(b1-2)[Gal(b1-4)GlcNAc(b1-6)]Man(a1-6)[GlcNAc(b1-4)][Gal(b1-4)GlcNAc(b1-2)Man(a1-3)]Man(b1-4)GlcNAc(b1-4)GlcNAc
# In short: as §1
# [39] = target: Gal(b1-4)GlcNAc(b1-2)[Gal(b1-4)GlcNAc(b1-6)]Man(a1-6)[GlcNAc(b1-4)][Gal(b1-4)GlcNAc(b1-2)[Gal(b1-4)GlcNAc(b1-4)]Man(a1-3)]Man(b1-4)GlcNAc(b1-4)[Fuc(a1-6)]GlcNAc
# In short: as §1
# [40] = target: Gal(b1-4)GlcNAc(b1-3)Gal(b1-3)GalNAc
# In short: as §1
# [41] = target: Gal(b1-4)GlcNAc(b1-3)Gal(b1-3)GlcNAc
# In short: as §1
# [42] = target: Gal(b1-4)GlcNAc(b1-3)Gal(b1-4)Glc
# In short: as §1
# [43] = target: Gal(b1-4)GlcNAc(b1-3)Gal(b1-4)GlcNAc
# In short: as §1
# [44] = target: Gal(b1-4)GlcNAc(b1-3)Gal(b1-4)GlcNAc(b1-2)Man(a1-3)[Gal(b1-4)GlcNAc(b1-3)Gal(b1-4)GlcNAc(b1-2)Man(a1-6)]Man(b1-4)GlcNAc(b1-4)GlcNAc
# In short: as §1
# [45] = target: Gal(b1-4)GlcNAc(b1-3)Gal(b1-4)GlcNAc(b1-2)Man(a1-3)[Gal(b1-4)GlcNAc(b1-3)Gal(b1-4)GlcNAc(b1-2)Man(a1-6)]Man(b1-4)GlcNAc(b1-4)[Fuc(a1-6)]GlcNAc
# In short: as §1
binder,measurement,setting,value
B1,glycan array binding signal (z-score),[1],-0.041
same,glycan array binding signal (z-score),[2],-0.447
same,glycan array binding signal (z-score),[3],-0.386
same,glycan array binding signal (z-score),[4],-0.337
same,glycan array binding signal (z-score),[5],0.166
same,glycan array binding signal (z-score),[6],-0.413
same,glycan array binding signal (z-score),[7],-0.454
same,glycan array binding signal (z-score),[8],2.67
same,glycan array binding signal (z-score),[9],1.3
same,glycan array binding signal (z-score),[10],-0.426
same,glycan array binding signal (z-score),[11],-0.447
same,glycan array binding signal (z-score),[12],-0.446
same,glycan array binding signal (z-score),[13],-0.304
same,glycan array binding signal (z-score),[14],-0.449
same,glycan array binding signal (z-score),[15],-0.432
same,glycan array binding signal (z-score),[16],-0.43
same,glycan array binding signal (z-score),[17],-0.377
same,glycan array binding signal (z-score),[18],-0.423
same,glycan array binding signal (z-score),[19],-0.431
same,glycan array binding signal (z-score),[20],3.13
same,glycan array binding signal (z-score),[21],-0.38
same,glycan array binding signal (z-score),[22],-0.385
same,glycan array binding signal (z-score),[23],-0.427
same,glycan array binding signal (z-score),[24],-0.37
same,glycan array binding signal (z-score),[25],-0.438
same,glycan array binding signal (z-score),[26],-0.42
same,glycan array binding signal (z-score),[27],-0.436
same,glycan array binding signal (z-score),[28],0.088
same,glycan array binding signal (z-score),[29],-0.431
same,glycan array binding signal (z-score),[30],-0.308
same,glycan array binding signal (z-score),[31],-0.437
same,glycan array binding signal (z-score),[32],-0.44
same,glycan array binding signal (z-score),[33],-0.431
same,glycan array binding signal (z-score),[34],-0.449
same,glycan array binding signal (z-score),[35],-0.305
same,glycan array binding signal (z-score),[36],-0.351
same,glycan array binding signal (z-score),[37],-0.429
same,glycan array binding signal (z-score),[38],-0.439
same,glycan array binding signal (z-score),[39],-0.414
same,glycan array binding signal (z-score),[40],-0.457
same,glycan array binding signal (z-score),[41],-0.447
same,glycan array binding signal (z-score),[42],-0.421
same,glycan array binding signal (z-score),[43],-0.387
same,glycan array binding signal (z-score),[44],-0.294
same,glycan array binding signal (z-score),[45],-0.332

# — the supplement of paper PMC8728848
